The record followed here is the supplement of paper PMC11383711.

Test [1] concerns the target H1 HA stem construct (mini-HA #4900). In words: mRNA display binding score; higher = more enriched on the antigen. To be noted: antigen blocked with: nothing. On the procedure: (§1)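 A pool of natively paired antibodies, displayed as scFv on mRNA, was selected once on antigen-coated beads and sequenced before and after; two replicates.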
The target of test [2] is H3 HA stem construct (H3ssF). Described as above. To be noted: antigen blocked with: nothing. As to the method:
as §1

Some of the results follow. Binding of human antibodies (heavy:light variable regions, tested as scFv in one mRNA-display pool) to influenza hemagglutinin, with or without the stem antibody CR9114 bound first. Score = (mean enrichment − median) / interquartile range of that screen; higher = more enriched, 0 = typical non-binder. Active = above the paper's cut-off per screen: stems 28; unblocked H1 Solomon Islands 5, H1 Michigan 3, H3 5, H5 19, H7 2.85, both B 5; blocked 9, 7, H5 10, H7 10, B Phuket 10, B Lee 11.5. Scores are scaled within each screen and are no affinities; replicates correlate at about 0.6 to 0.9, and antibodies rare in the pool are noisier.

B1: W85-1C02 (protein)
chain 1: EVQVVESGGGLVQPGGSLRLSCAASGFTVSGNYMHWVRQAPGKGLEWVSVLYAGGRTYYADSVKGRFTISRDNSKNMLYLQMNSLSVEDTAVYYCAGLSLEWLDVWGQGTTVAVSS
chain 2: DIQMTQSPSSLSASVGDRVTITCRAGQNIASYLNWYQHRPGKAPRLLIFAASSLQTGVPSRFSGSGSGSDFTLTISSLQPEDFATYYCQQTYSFFLTFGGGTKVEVK
Consider B1, for which the figures for the “mRNA display binding score” value in test [1] and in test [2] were inactive: 0.149 and inactive: -0.485, respectively.

B2: antibody 4B04 (protein)
chain 1: VQLVESGGGVVQPGRSLRLSCAVSGFTFISYDMHWVRQAPGKGPEWMAYISYDGNRQYYADSVKGRFTISRDNSKNTLHLQMNSLKPEDTAVYSCAREFVPPGPDDYYFGLDVWGQGTTVTVSS
chain 2: EIVLTQSPATLSLSPGDRATLSCRASQSVGSYLAWYQQKPGQAPRLLIYDASKRATDIPARFSGSGSGTDFTLTISSLEPADFAIYYCQLRSDWPPGFTFGRGTKVEIK
As to B2, the “mRNA display binding score” value is inactive: 0.276 in test [1] and inactive: -0.251 in test [2].

B3: C1-2-B02 (protein)
chain 1: VQLVQSGAELKKPGASVKVSCKASGYTFTDYYLHWVRQAPGQGLEWMGWIKPNFGGTIYAQKFQGRVTVTSDTSINTAYMELSRLTSDDTAVYYCARAVYYDLTSDFCVDCYDAFDVWGQGTMVTVSS
chain 2: DIQLTQSPSFLSAFVGDRVTITCRASQGISTYLAWYQQKPGKAPKLLIYAASILQSGVPSRFRGSGSGTEFTLTISSLQPEDFATYYCQQLNSYVVTFGQGTKVEIK
As for B3, the “mRNA display binding score” value in test [1] is inactive: 0.0179; in test [2], inactive: -0.182.

B4: antibody 3G04 (protein)
chain 1: VQLVESGGAVVQPGRSLRVSCAASGFNFRTYGMYWVRQAPGKGLEWVALISYDGDKKFYADFAKGRFTISRDNSKNRFYLQMNSLQSDDTAMYYCAKDGPRGGGSGSLAHWGQGTLVTVSS
chain 2: VSASPGHKITISCSGSGPNIGTNRVSWYQQFPGTVPRPLIYDDYLRPSGIPERFSGSKSGTSATLDITELQTGDEADYYCGTWDSSLSVWVFGGGTKLTVL
Turning to B4, the “mRNA display binding score” value in test [1] was inactive: -0.779; in test [2] it was inactive: -0.539.

B5: antibody 4G04 (protein)
chain 1: VQLVESGGAVVQPGRSLRLSCTASGFIFSRFAIHWVRQAPGKALEWVAVISDDASKEDYADSVKGRFIISRDNSKSTLYLQMNSLTTEDTAVYYCARDPTHSGDIISWFFDSWGQGILVTVSS
chain 2: SYELTQPPSVSVSPGQTANITCSGDKLGDKYTSWYQQKSGQSPVLVIYHDTRRPSGIPERFSGSSSGNTATLTISGTQVMDEADYYCQAWVWDSYVVFGGGTKLTVL
On to B5, for which the “mRNA display binding score” value is inactive: 0.802 in test [1] and inactive: -0.0214 in test [2].

B6: antibody 3F01 (protein)
chain 1: EVQLVESGGGLVLPGRSLTLSCVASGFTYDDYAMHWVRQVPGKGLEWVAGISWDSVSIGYEDSLRGRFTISRDNAKNSLYLQINSLRDEDTAFYYCAKQGEMRGYDYRLHWFFDLWGRGTLVTVSS
chain 2: EIVLTQSPGTLSLSPGERATLSCRASQSVSSHLVWYQMKPGQAPRLLIYGASSRATGIPDRFSGSGSGTDFTLNIRRLEPEDFAVYFCQQFEDLPITFGRGTRLEIK
Regarding B6, the entries for the “mRNA display binding score” value in test [1] and in test [2] were inactive: 1.16 and inactive: 0.634, respectively.

B7: C6-2-C01 (protein)
chain 1: VQLVESGGGLVKPGASLRLSCVGSGFIFSNAWMNWVRQAPGKGLEWVGRMKIYTDGGTTDYAAPVKGRFTISRDDSKNTLYLQMSSLKTEDTAMYYCVTDFSGRRPYWGQGTLVTVSS
chain 2: DIQMTQSPSTLSASVGDRVTITCRASQRISNWLAWYQQKPGKAPKLLIYEASTLESGVPSRFSGSGSGTEFTLTINSLQPDDFATYYCQLYNDYSGFTFGPGTKVDIK
In the case of B7, the “mRNA display binding score” value in test [1] is inactive: 0.461; in test [2] it was inactive: 8.87.

B8: R95-2H10 (protein)
chain 1: EVQLVASGGALGQPDRSLRLSCAASGFIFEEYALHWVRQAPGKGLEWVSNVSWNSGYRAYADSVKGRFTISRDNAEKSLSLQMNSVRREDTAFYYCAKDRAGHLGSGSYFDSWGQGTLVTVSS
chain 2: SYELTQPPSVSVAPGQTARIPCGGNNIGSKSVHWYQQKPGQAPVLVVYDDSDRPSGIPERFSGSNSGNTATLTISRVEAGDEADYYCQVWDGYSDPLFVFGTGTKV
With B8, the “mRNA display binding score” value was inactive: 0.0967 in test [1] and inactive: 0.0271 in test [2].

B9: 039-10-4D04 (protein)
chain 1: QVQLVESGGGVVQPGTSLRLSCVVSGFPFRSYSIHWVRQAPGKGLEWVAVISYDGDNKYYADSVKGRFTISRDNSKKTAYLQMNSLRVDDTAIYFCARDPVEYSSVSYYFLYGMDVWGQGTTVTVSS
chain 2: QSVLTQPPSVSGAPGQRVTISCTGSSSNIGAGYDVHWYQQLPGTAPKLLIYGNINRPSGVPDRFSGSKSGTSASLAISGLQAEDEGDYYCQSYDNSLLLSVVFGSGTRLTVL
With B9, the “mRNA display binding score” value in test [1] is inactive: 0.0979; in test [2], inactive: -0.24.

B10: C7-3-C02 (protein)
chain 1: QVQLQESGPGLVKPSETLSLTCNVSGDSVSSGNYYWSWIRQPPGKALEWIGYIYNRGRTKYNSALKSRVTISEDTANNQFSLRLTSVTAADTAIYYCARDNVVSLGRFGEFALYIDYWGRGTLVTVS
chain 2: DIQMTQSPSSLSASVGDRVTITCRASQSINTYLNWYQQKPGAAPKLLIYGASTLQSGVPSRFSGGGSGTDFTLTISSLQPDDFATYHCQQSYGIPLTFGQGTRLEIK
B10: the “mRNA display binding score” value in test [1] is inactive: 1.62; in test [2] it was inactive: 5.95.

B11: 009-10-1G06 (protein)
chain 1: EVQLVETGGGLIQPGGSLRLSCTASKFTVSINYMSWVRQTPGKGLEWVSIIYDDGSTFYADSVRGRFTISRDNSKNTIYLQMNSLRADDTAVYYCARDPGMRGYFDHWGQGTLVTVSS
chain 2: QSVLTQPPSVSGAPGQRVAISCTGSSSNIGAGYDVHWYQQLPGTAPKLLIYDNNSRPSGVPDRFSGSKSGTSASLAITGLQAEDEADYYCQSYDSGVSGYVFGTGTKVTVL
As to B11, the “mRNA display binding score” value in test [1] is inactive: -0.809; in test [2], active: 98.

B12: K77-1F11 (protein)
chain 1: QVQLVQSAAEVKKPGASVKVSCKASGYSFTSYQVHWVRQAPGQGLEWMGMIIPTPGSINYAQKFQGRVTMTRDTSTNTVYMEVSGLRSDDTAVYYCARRGSYISGHYTYYGMDVWGQGTTVTVSS
chain 2: EIVLTQSPGTLSLSPGERATLSCRASQSVSNSYLAWYQQRPGQAPRLLFYGASSRATGIPDRFSGYGSGTDFTLTISRLEPEDFAVYYCHHYGGSAGTFGQGTKVEIK
In the case of B12, the “mRNA display binding score” value in test [1] is inactive: 0.199; in test [2] it was inactive: -0.0877.

B13: C6-2-D02 (protein)
chain 1: VQLVESGGGLVQPGGSLRLSCAASGFTFNTHLMYWVRQAPGKGLEWVSLISPAGRNKFYADSVRARFTISRVNSRNTLYLQIDTVRPEDTAVYYCATRSVGATGYLSWGPKDYSYNDVDVWGQGTTVTVSS
chain 2: DIQMTQSPSSLSASVGDTVTIACRASQGIRSDLGWYQQQAGKAPRRLIYGASSLQSGVPSRFSGSGSGTEFTLTISSLQPEDFATYYCLQHNSYPWTFGQGTKVEIK
For B13, the “mRNA display binding score” value in test [1] was inactive: -0.091; in test [2], inactive: -0.277.

B14: antibody 2G02 (protein)
chain 1: EVQLVESGGGLVQPGRSLRLSCAASGFTFDDYTMHWVRQAPGRGLEWVSSINWVSSTVGYADSVKGRFTISRDNAKNSLYLQMNSLRPEDTALYYCARDRRTDATMDYYFYSAMDVWGRGTTVTVSS
chain 2: DIQMTQSPSSLSASVGDRVTITCQASQDISKYLNWYQQKPGKAPKLLIYDASTLETGVPSRFSGSASGTDFTFTISNLQPEDIATYYCQQYDNLPITFGQGTRLEIK
With B14, the figures for the “mRNA display binding score” value in test [1] and in test [2] were inactive: -0.494 and inactive: 1.9, respectively.

B15: R95-2G10 (protein)
chain 1: EVQLVESGGGVVHPGGSLRLSCAASGFTFSSYAMHWVRQAPGKGLEGVAFIKYDGTNKYYADSLKGRFTISRDNSKNTLYLQMNSLRADDTAVYYCAKAHNAAVAGLAEYFEHWGQGTLVTVSS
chain 2: SYELTQPPSVSVAPGQTARITCGGNNIGSKNVHWYQQKPGQAPVLVVHDDSDRPSGIPERFSGSNSGNTATLTISRVEAGDEADYYCQVWDRHSDHFWVFGGGTKLTVL
Take B15: the “mRNA display binding score” value was inactive: -1 in test [1] and inactive: -0.0869 in test [2].

B16: K77-1G08 (protein)
chain 1: LVQPQESGPGLVKPSETLSLTCTVSNGSISSGNFYWGWIRQPPGKGLEWLGAIYYTGITYYSPSLKRRLTISVDTSMNQFSLRLNSVTAADTAVYYCARDLAPYYYGSGTFYNIFDHWGQGTLITVSS
chain 2: QSALTQPPSVSAAPGQRVTISCSGSRSNIGNYYVSWYQQFPGTAPKLLIYDNDKRPSGIPDRFSGSKSGTSATLGITGLQTGDEADYYCGTWDSSLSAHVIFGGGTKLTVL
Consider B16, for which the “mRNA display binding score” value is inactive: -0.426 in test [1] and inactive: -0.21 in test [2].

B17: antibody 6F06 (protein)
chain 1: VQLVESGGGLVQPGRSLRLSCAASGFTFDDYAMHWVRQAPGKGLEWVSTISWGSAGVGYADSVKGRFTISRDNANSALYLQMSSLRPEDTALYYCAKDRGYSTSQDYYYYFGMDVWGQGTTVTVSS
chain 2: DIQMTQSPSSLSASVGDRVTITCQASQDINKYLIWYQQRPEKAPKLLIYDASNLETGVPSRFSGSGSGTDFTFTISNLQPEDIATYYCQQYESFPLTFGGGTKVEIK
On to B17, for which the “mRNA display binding score” value is inactive: 0.439 in test [1] and inactive: 0.729 in test [2].

B18: K77-2A03 (protein)
chain 1: LVQLQESGPGLVKPSETLSLTCTVSGGSISSSTYYWGWIRQPPGKGLEWIGSIYYTGDTYYNPSLKSRVTISVDSSKNQFSLKLSSLTAADTAVYYCARERAWLRGPFDFWGRGTLVTVSS
chain 2: DIVMTQSPDSLAVSLGERATINCKSSQSILFSSYNKNHLAWYQQKPGQPPKLLIYWASTRESGVPDRFSGSGSGTDFTLTISSLQAEDVAVYFCQQYYSPPSFTFGQGTKLEIK
With B18, the “mRNA display binding score” value in test [1] is inactive: 0.133; in test [2], inactive: -0.181.

B19: 01.m.01 (protein)
chain 1: EVQLVESGGGLVQPGWSLRLSCAASGFTFDSHAMHWVRQTPGKGLEWVSGITWSSNEVGYADSVKGRFTTSRDNAKNSLYLQMNSLRLEDTALYYCTTAGGKGNWGRDDYWGQGTLVTVSS
chain 2: DIHMTQSPSSLSASVGDRVTITCRASQGIRSYLAWYQQKPGKAPKLLIYAASTLQSGVPSRFSGSGSGTDFTLTISSLQPEDFATYYCQQVDDYPYLFAQGTKLEIK
On to B19, for which the “mRNA display binding score” value is inactive: 0.841 in test [1] and inactive: -0.098 in test [2].
